In PubChem BioAssay AID504466 (National Center for Advancing Translational Sciences (NCATS), 2011):
Screen size: about 330,000 compounds; about 4,200 (1.3%) were called active. The inconclusive results got no clear call from the source; some entries with a clear call stand among them for comparison. The call rests on the fitted dose curve; in most records, active means well fitted activation curve with a large enough effect; inconclusive means small, poorly fitted or top-dose-only effect; inactive means no such curve, though single readings can be large or run the other way. Potencies beside an inconclusive call are fits to weak or partial responses and may not hold up.

assay: qHTS screen for small molecules that induce genotoxicity in human embryonic kidney (HEK293T) cells expressing luciferase-tagged ELG1; settings: HEK293T ELG1-luciferase reporter, luminescence, 16 h; series mostly up to 46 µM; further: nearly all actives have a fitted effect of over 60% in size
Procedure, shortened: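 Genotoxicity was scored as increased ELG1-luciferase reporter signal, measured by ONE-Glo luminescence (30 min, room temperature). Compound or vehicle exposure of the HEK293T reporter cells lasted 16 hr at 37°C.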
Potency means the concentration at half of the fitted maximal effect; tags describe the fitted curve by direction and shape.

SMILES	Potency
Cc1ccn2c(=O)nc(SCC(=O)c3ccccc3)nc2c1	inconclusive: 8.2 µM [activator, partial curve]
CCN(CC)c1ccc2cc(C(C)=O)c(=O)oc2c1	inconclusive: 18.4 µM [activator, partial curve, poor fit]
CCOC(=O)N1CCN(c2nc(-c3ccc(F)cc3)cs2)CC1	inconclusive: 25.9 µM [activator, single point]
S=C(N/N=C/c1ccc2ncccc2c1)Nc1ccccc1	inconclusive: 23.1 µM [activator, single point]
O=C(Nc1nnc(-c2ccccc2)o1)C1CCCCC1	inconclusive: 14.6 µM [activator, partial curve, poor fit]
O=S(=O)(Nc1cccc(-c2nc3cccnc3s2)c1)c1cccs1	inactive
O=C(COc1ccc2c(c1)OCO2)Nc1cccc(F)c1	active: 13 µM
O=c1c2cc(N3CCOCC3)ccc2[nH]c(=S)n1Cc1ccccn1	inconclusive: 9.2 µM [activator, partial curve, poor fit]
NNc1nc(-c2ccccc2)nc2sc3c(c12)CCCC3	active: 1.3 µM
O=C(CN1CCOCC1)Nc1ccc(-c2nc3ccccc3[nH]2)cc1	inconclusive: 18.4 µM [activator, single point]
CC(Oc1ccccc1F)c1nnc(SCC(=O)NCc2ccc3c(c2)OCO3)o1 (stereo unspecified)	inactive
Cc1ccc(C(=O)Nc2cnc3sc(C)nn3c2=O)cc1	inconclusive: 18.4 µM [activator, partial curve, poor fit]
COc1ccc(C(=O)Nc2ccc(OC)c(OC)c2)cc1	inconclusive: 14.6 µM [activator, partial curve, poor fit]
CCOc1ccc2nc(N3C(=O)/C(=C/c4ccccc4)NC3=S)sc2c1	inconclusive: 18.4 µM [activator, partial curve, poor fit]
CCSc1nccc(-c2nn(-c3ccc(C)cc3)ccc2=O)n1	inactive
CCc1nc2ccc(C(=O)NCCc3ccco3)cc2nc1CC	inconclusive: 32.6 µM [activator, partial curve, poor fit]
C[C@H](NC(=O)c1nc[nH]c1C(=O)N1CCNCC1)C(=O)OC(C)(C)C	inconclusive: 29.1 µM [activator, single point]
CCN(c1ccccc1)c1ncnc2c1cnn2-c1ccccc1	active: 20.6 µM
COc1cccc(SCc2noc(C(=O)NC(C)C)c2C(=O)O)c1	inactive
O=C(Nc1ccc(C(=O)N2CCCC2)cc1)c1ccc2c(c1)OCO2	inconclusive: 20.6 µM [activator, partial curve]
N=c1c2c(-c3ccccc3)c(-c3ccccc3)oc2ncn1CCCN1CCOCC1	inactive
CC(Oc1cc2oc(=O)c3c(c2cc1Cl)CCC3)C(=O)NCCCn1ccnc1 (stereo unspecified)	inactive
CC1(C)CC(=O)C=C(c2ccc(-c3ccccc3)cc2)C1	inconclusive: 4.11 µM [activator, full curve, poor fit]

SMILES	Potency
O=[N+]([O-])c1ccc2nc(SCc3cn4ccccc4n3)[nH]c2c1	inconclusive: 18.4 µM [activator, partial curve, poor fit]
CCOC(=O)C1CCN(C(=O)Nc2ccc(OC)c(OC)c2)CC1	inactive
O=C(/C=C\c1ccco1)Nc1cc([N+](=O)[O-])ccc1F	inconclusive: 9.2 µM [activator, partial curve]
Cc1ccc(NC(=O)CSc2ccc(-c3ccccn3)nn2)cc1F	inconclusive: 29.1 µM [activator, single point]
O=C(N/N=C/c1ccccn1)c1cc(-c2ccncc2)nc2ccccc12	inconclusive: 32.6 µM [activator, partial curve, poor fit]
CCNc1nc(N)nc(Oc2ccc(C(=O)OC)cc2)n1	active: 11.6 µM
O=S(=O)(Nc1cccc(-c2ccc3nncn3n2)c1)c1cccc(F)c1	inactive
Cn1c(O)c(C=Nc2ccc(Br)cc2)sc1=O	inconclusive: 5.17 µM [activator, partial curve]
COc1ccc(S(=O)(=O)N2CCC(C(=O)NCCc3ccccc3)CC2)cc1	inactive
COc1ccc2nc(NC(=O)c3cccs3)sc2c1	inconclusive: 0.651 µM [activator, full curve]
O=C(COc1ccc(F)cc1Cl)NC1CCCCCC1	inconclusive: 20.6 µM [activator, partial curve]
O=C(Nc1ccc2nc3n(c(=O)c2c1)CCCCC3)c1c(F)ccc([N+](=O)[O-])c1F	inconclusive: 4.11 µM [activator, single point]
Cc1cccc(Nc2nc3c(S(=O)(=O)c4ccccc4)nnn3c3ccccc23)c1C	inconclusive: 18.4 µM [activator, partial curve, poor fit]
O=c1[nH]c(COc2ccc(Br)cc2Cl)nc2ccccc12	active: 7.3 µM
NC(=O)C1CCN(C(=O)CSc2nc3ccccc3s2)CC1	inactive
CC(C)(C)C(=O)Nc1nc2c(s1)CN(Cc1ccccc1)CC2	inconclusive: 23.1 µM [activator, partial curve, poor fit]
CC(C)(C)OC(=O)NCCOC(=O)c1[nH]cnc1C(=O)NCc1ccccc1	inactive
N#CCC(=O)N/N=C\c1ccccc1OC/C=C/c1ccccc1	inconclusive: 18.3 µM [activator, partial curve]
CC1Sc2ccc(C(=O)Nc3cc(S(C)(=O)=O)ccc3Cl)cc2NC1=O (stereo unspecified)	inconclusive: 20.6 µM [activator, partial curve, poor fit]
COc1ccc(/C=C/C(=O)c2cc3c(cc2N)OCO3)cc1	inconclusive: 18.3 µM [activator, partial curve]
CCc1ccc(NC(=O)C2CCN(S(=O)(=O)c3ccc4[nH]c(=O)ccc4c3)CC2)cc1	inconclusive: 23.1 µM [activator, partial curve, poor fit]
CCCNC1=C(N(C(C)=O)c2cccc(F)c2)C(=O)c2ccccc2C1=O	inactive
CCOC(=O)c1[nH]c(C)c(C(=O)c2cc(F)ccc2F)c1C	inconclusive: 10 µM [activator, partial curve]
